MIC of clinical N. gonorrhoeae isolates (2015-2017) by agar dilution on GC agar with 1% IsoVitaleX (ranges not stated); higher = less susceptible. No active / inactive call per row; the paper counts benzylpenicillin above 1 and ceftriaxone above 0.125 mg/L as resistant (EUCAST). The method is stated for benzylpenicillin and ceftriaxone and assumed for the other drugs. '<=' is inferred from pile-ups at the end values. Isolates are numbered anew.

What all share (test): Agar dilution on enriched GC agar; resistance determinants by microarray.
(In general: In agar dilution the substance is mixed into plates at graded concentrations.)

Compound in one test: CN[C@@H]1[C@H](O)[C@H](NC)[C@H]2O[C@@]3(O)C(=O)C[C@@H](C)O[C@H]3O[C@@H]2[C@H]1O [spectinomycin]
Compound in a further test: CN(C)[C@@H]1C(O)=C(C(N)=O)C(=O)[C@@]2(O)C(O)=C3C(=O)c4c(O)cccc4[C@@](C)(O)[C@H]3C[C@@H]12 [tetracycline]
Compound in another test: CC[C@H]1OC(=O)[C@H](C)[C@@H](O[C@H]2C[C@@](C)(OC)[C@@H](O)[C@H](C)O2)[C@H](C)[C@@H](O[C@@H]2O[C@H](C)C[C@H](N(C)C)[C@H]2O)[C@](C)(O)C[C@@H](C)CN(C)[C@H](C)[C@@H](O)[C@]1(C)O [azithromycin]
Compound in the next test: CC1(C)S[C@@H]2[C@H](NC(=O)Cc3ccccc3)C(=O)N2[C@H]1C(=O)O [benzylpenicillin]
Compound in the next test: CO/N=C(\C(=O)N[C@@H]1C(=O)N2C(C(=O)O)=C(CSc3nc(=O)c(O)nn3C)CS[C@H]12)c1csc(N)n1 [ceftriaxone]

Broadly, the MIC is the least concentration at which growth counts as inhibited. With “Neisseria gonorrhoeae isolate 30 (blaTEM plasmid: no, gyrA: wild type, mtrR promoter: wild type, parC: Ser87, Gly 91, penA: wild type, ponA: wild type, porB: wild type, rpsJ: wild type, tetM plasmid: no)”, the MIC with spectinomycin was 16 mg/L; in the test with tetracycline, 0.5 mg/L; with azithromycin, 0.12 mg/L; in the test with benzylpenicillin, at most 0.015 mg/L; in the test with ceftriaxone, at most 2 ng/mL.
For the test system “Neisseria gonorrhoeae isolate 425 (blaTEM plasmid: no, gyrA: wild type, mtrR promoter: wild type, parC: wild type, penA: wild type, ponA: wild type, porB: wild type, rpsJ: wild type, tetM plasmid: no)”, the MIC is 16 mg/L with spectinomycin; 0.5 mg/L with tetracycline; 0.25 mg/L in the test with azithromycin; at most 0.015 mg/L with benzylpenicillin; at most 2 ng/mL in the test with ceftriaxone.
Consider “Neisseria gonorrhoeae isolate 303 (blaTEM plasmid: no, gyrA: Phe91, Gly95, mtrR promoter: -35delA, parC: Arg87, Glu91, penA: ins345Asp, ponA: Pro421, porB: wild type, rpsJ: Met57, tetM plasmid: no)”, for which the MIC in the test with spectinomycin stood at 32 mg/L; with tetracycline it was 1 mg/L; in the test with azithromycin, 0.015 mg/L; in the test with benzylpenicillin it was 1 mg/L; with ceftriaxone, 8 ng/mL.
Consider “Neisseria gonorrhoeae isolate 456 (blaTEM plasmid: no, gyrA: wild type, mtrR promoter: wild type, parC: wild type, penA: ins345Asp, ponA: wild type, porB: wild type, rpsJ: wild type, tetM plasmid: no)”, for which the MIC was 16 mg/L with spectinomycin; 0.25 mg/L in the test with tetracycline; 0.03 mg/L with azithromycin; 0.06 mg/L with benzylpenicillin; at most 2 ng/mL with ceftriaxone.
Regarding “Neisseria gonorrhoeae isolate 32 (blaTEM plasmid: no, gyrA: wild type, mtrR promoter: wild type, parC: wild type, penA: wild type, ponA: wild type, porB: wild type, rpsJ: wild type, tetM plasmid: no)”, the MIC with spectinomycin was 16 mg/L; with tetracycline, 0.12 mg/L; in the test with azithromycin, 0.06 mg/L; with benzylpenicillin it was at most 0.015 mg/L; with ceftriaxone it was at most 2 ng/mL.
For the test system “Neisseria gonorrhoeae isolate 361 (blaTEM plasmid: no, gyrA: wild type, mtrR promoter: wild type, parC: wild type, penA: wild type, ponA: wild type, porB: wild type, rpsJ: wild type, tetM plasmid: no)”, the MIC with spectinomycin is 16 mg/L; with tetracycline, 0.12 mg/L; with azithromycin, 0.06 mg/L; with benzylpenicillin, at most 0.015 mg/L; with ceftriaxone, at most 2 ng/mL.
The matching figures for “Neisseria gonorrhoeae isolate 443 (blaTEM plasmid: no, gyrA: Phe91, Asn95, mtrR promoter: -35delA, parC: Arg87, Glu91, penA: ins345Asp, ponA: Pro421, porB: Lys120, Gly121, rpsJ: Met57, tetM plasmid: no)”: 16 mg/L, 2 mg/L, 0.5 mg/L, 0.5 mg/L and 15 ng/mL.
On the same counts, the results for “Neisseria gonorrhoeae isolate 225 (blaTEM plasmid: no, gyrA: Thr91, Gly95, mtrR promoter: wild type, parC: wild type, penA: ins345Asp, ponA: wild type, porB: wild type, rpsJ: Met57, tetM plasmid: no)” are 16 mg/L, 0.5 mg/L, 0.06 mg/L, 0.25 mg/L and at most 2 ng/mL.
For “Neisseria gonorrhoeae isolate 62 (blaTEM plasmid: no, gyrA: wild type, mtrR promoter: wild type, parC: wild type, penA: ins345Asp, ponA: wild type, porB: wild type, rpsJ: wild type, tetM plasmid: no)”, the MIC with spectinomycin was found to be 16 mg/L; in the test with tetracycline it was 0.12 mg/L; in the test with azithromycin, 0.03 mg/L; with benzylpenicillin, 0.06 mg/L; with ceftriaxone, 8 ng/mL.
With “Neisseria gonorrhoeae isolate 13 (blaTEM plasmid: no, gyrA: Phe91, Gly95, mtrR promoter: -35delA, parC: Arg87, Glu91, penA: ins345Asp, ponA: Pro421, porB: Asp120, Ala121, rpsJ: Met57, tetM plasmid: no)”, the MIC with spectinomycin is 8 mg/L; in the test with tetracycline, 1 mg/L; with azithromycin it was 0.5 mg/L; in the test with benzylpenicillin, 0.5 mg/L; with ceftriaxone, at most 2 ng/mL.
Regarding “Neisseria gonorrhoeae isolate 490 (blaTEM plasmid: yes, gyrA: Phe91, Asp95, mtrR promoter: wild type, parC: wild type, penA: ins345Asp, ponA: wild type, porB: wild type, rpsJ: Met57, tetM plasmid: yes)”, the MIC was 16 mg/L with spectinomycin; 16 mg/L in the test with tetracycline; 0.12 mg/L with azithromycin; at least 32 mg/L in the test with benzylpenicillin; at most 2 ng/mL with ceftriaxone.
With “Neisseria gonorrhoeae isolate 275 (blaTEM plasmid: no, gyrA: wild type, mtrR promoter: wild type, parC: wild type, penA: wild type, ponA: wild type, porB: wild type, rpsJ: wild type, tetM plasmid: yes)”, the minimal inhibitory concentration (MIC) is 16 mg/L in the test with spectinomycin; 32 mg/L in the test with tetracycline; 0.06 mg/L in the test with azithromycin; at most 0.015 mg/L with benzylpenicillin; at most 2 ng/mL in the test with ceftriaxone.
In the case of “Neisseria gonorrhoeae isolate 160 (blaTEM plasmid: no, gyrA: Phe91, Asn95, mtrR promoter: wild type, parC: wild type, penA: ins345Asp, ponA: Pro421, porB: Asp120, Gly121, rpsJ: Met57, tetM plasmid: no)”, the MIC was 16 mg/L in the test with spectinomycin; 4 mg/L in the test with tetracycline; 0.03 mg/L in the test with azithromycin; 0.06 mg/L with benzylpenicillin; at most 2 ng/mL with ceftriaxone.
On to “Neisseria gonorrhoeae isolate 223 (blaTEM plasmid: no, gyrA: wild type, mtrR promoter: wild type, parC: wild type, penA: ins345Asp, ponA: wild type, porB: wild type, rpsJ: wild type, tetM plasmid: no)”, for which the MIC in the test with spectinomycin was 16 mg/L; with tetracycline, 0.25 mg/L; with azithromycin it was 0.06 mg/L; in the test with benzylpenicillin, at most 0.015 mg/L; in the test with ceftriaxone, at most 2 ng/mL.
As to “Neisseria gonorrhoeae isolate 189 (blaTEM plasmid: no, gyrA: Thr91, Gly95, mtrR promoter: -35delA, parC: wild type, penA: ins345Asp, ponA: Pro421, porB: wild type, rpsJ: wild type, tetM plasmid: no)”, the MIC is 32 mg/L with spectinomycin; 1 mg/L in the test with tetracycline; 0.06 mg/L with azithromycin; 0.12 mg/L with benzylpenicillin; at most 2 ng/mL with ceftriaxone.
On to “Neisseria gonorrhoeae isolate 60 (blaTEM plasmid: no, gyrA: wild type, mtrR promoter: wild type, parC: Arg87, Glu91, penA: ins345Asp, ponA: wild type, porB: wild type, rpsJ: wild type, tetM plasmid: no)”, for which the MIC with spectinomycin was 8 mg/L; in the test with tetracycline it was 0.06 mg/L; in the test with azithromycin it was 0.06 mg/L; with benzylpenicillin it was 0.03 mg/L; in the test with ceftriaxone it was at most 2 ng/mL.
Consider “Neisseria gonorrhoeae isolate 445 (blaTEM plasmid: no, gyrA: Phe91, Asn95, mtrR promoter: -35delA, parC: wild type, penA: ins345Asp, ponA: Pro421, porB: Asn120, Asp121, rpsJ: Met57, tetM plasmid: no)”, for which the MIC with spectinomycin was 32 mg/L; with tetracycline it was 0.5 mg/L; in the test with azithromycin it was 0.25 mg/L; with benzylpenicillin it was 2 mg/L; with ceftriaxone, 30 ng/mL.
On to “Neisseria gonorrhoeae isolate 451 (blaTEM plasmid: no, gyrA: Phe91, Gly95, mtrR promoter: -35delA, parC: Arg87, Glu91, penA: ins345Asp, ponA: wild type, porB: wild type, rpsJ: Met57, tetM plasmid: no)”, for which the MIC is 16 mg/L in the test with spectinomycin; 0.25 mg/L in the test with tetracycline; 0.06 mg/L with azithromycin; 0.03 mg/L with benzylpenicillin; at most 2 ng/mL in the test with ceftriaxone.
Consider “Neisseria gonorrhoeae isolate 175 (blaTEM plasmid: no, gyrA: Phe91, Gly95, mtrR promoter: -35delA, parC: Ser87, Gly 91, penA: ins345Asp, ponA: wild type, porB: Asn120, Asp121, rpsJ: Met57, tetM plasmid: no)”, for which the MIC with spectinomycin is 16 mg/L; in the test with tetracycline it was 0.25 mg/L; with azithromycin it was 0.06 mg/L; with benzylpenicillin it was at most 0.015 mg/L; in the test with ceftriaxone, at most 2 ng/mL.
The matching figures for “Neisseria gonorrhoeae isolate 434 (blaTEM plasmid: no, gyrA: Thr91, Gly95, mtrR promoter: wild type, parC: wild type, penA: wild type, ponA: wild type, porB: wild type, rpsJ: wild type, tetM plasmid: no)”: 32 mg/L, 0.12 mg/L, 0.25 mg/L, 0.25 mg/L and 4 ng/mL.
The matching figures for “Neisseria gonorrhoeae isolate 368 (blaTEM plasmid: no, gyrA: wild type, mtrR promoter: wild type, parC: wild type, penA: ins345Asp, ponA: wild type, porB: wild type, rpsJ: wild type, tetM plasmid: no)”: 32 mg/L, 0.06 mg/L, 0.03 mg/L, at most 0.015 mg/L and 8 ng/mL.
Consider “Neisseria gonorrhoeae isolate 323 (blaTEM plasmid: no, gyrA: Phe91, Gly95, mtrR promoter: wild type, parC: Arg87, Glu91, penA: ins345Asp, ponA: Pro421, porB: Asp120, Ala121, rpsJ: Met57, tetM plasmid: no)”, for which the MIC with spectinomycin is 32 mg/L; with tetracycline it was 0.5 mg/L; with azithromycin, 0.008 mg/L; in the test with benzylpenicillin, 0.5 mg/L; with ceftriaxone it was 8 ng/mL.
As to “Neisseria gonorrhoeae isolate 52 (blaTEM plasmid: yes, gyrA: Phe91, Asn95, mtrR promoter: wild type, parC: Asn87, Gly91, penA: wild type, ponA: Pro421, porB: wild type, rpsJ: Met57, tetM plasmid: yes)”, the MIC with spectinomycin is 32 mg/L; in the test with tetracycline, 64 mg/L; with azithromycin, 0.25 mg/L; with benzylpenicillin, at least 32 mg/L; with ceftriaxone it was 60 ng/mL.
As to “Neisseria gonorrhoeae isolate 187 (blaTEM plasmid: no, gyrA: Phe91, Asn95, mtrR promoter: wild type, parC: Arg87, Glu91, penA: ins345Asp, ponA: Pro421, porB: Asp120, Ala121, rpsJ: Met57, tetM plasmid: no)”, the MIC with spectinomycin is 16 mg/L; in the test with tetracycline, 0.5 mg/L; with azithromycin, 0.12 mg/L; in the test with benzylpenicillin it was 0.12 mg/L; in the test with ceftriaxone, at most 2 ng/mL.
In the case of “Neisseria gonorrhoeae isolate 417 (blaTEM plasmid: no, gyrA: Phe91, Asn95, mtrR promoter: wild type, parC: Arg87, Glu91, penA: ins345Asp, ponA: Pro421, porB: wild type, rpsJ: Met57, tetM plasmid: no)”, the MIC with spectinomycin was found to be 16 mg/L; with tetracycline, 0.5 mg/L; with azithromycin it was 0.25 mg/L; in the test with benzylpenicillin it was 0.12 mg/L; with ceftriaxone, 4 ng/mL.

Values taken from the supplement of paper PMC6657886.
